Laboratory results: the RNAGym collection of RNA variant scans (doi:10.7554/elife.90254)
The source gives no read counts; variants with many changes may rest on few reads.

B1: LINE1-mini (parent)
chain: GGCAGAGCUCAACACAGCGUGGCAAAGUGGCUGUGGCUAGACUGCC

Variants of: B1
Assay: self-cleavage, relative activity (ratio to wild type); higher = more cleavage; in vitro, sequencing; the parent is a self-cleaving ribozyme

Row | Variant | self-cleavage
1 | C8G G27U G35C A41C | 0.01
2 | C8G G29A G33C U34C C46A | 0.02
3 | C8G G29U G35U G36C | 0.05
4 | C8G G29U U34G C37U | 0.09
5 | C8G G30A C46A | 0.01
6 | C8G G30A U32A | 0.07
7 | C8G G30C G40C | 0.39
8 | C8G G30C U34A | 0
9 | C8G G33A U43C | 0.01
10 | C8G G33C C46A | 0.01
11 | C8G G40C C42A | 0.15
12 | C8G U9A A14U G21U G27C G33U U34C | 0.02
13 | C8G U9A C10A | 0.04
14 | C8G U9A C15A A26U G36U | 0.09
15 | C8G U9A C18A C23A | 0.09
16 | C8G U9A C37G A39C A41U | 0.01
17 | C8G U9C C10A C18U G44U C45U | 0
18 | C8G U9G A24G | 0.05
19 | C8G U9G A25G A39G | 0.01
20 | C8G U9G G19U A26U | 0.01
21 | C8G U28A U38A | 0.05
22 | C8G U28C A39U | 0.03
23 | C8G U28C C31G | 0
24 | C8G U28G C46A | 0.07

Row | Variant | self-cleavage
25 | C8G U28G G36A | 0.06
26 | C8G U28G G36C | 0.02
27 | C8G U28G U32C C45A | 0.01
28 | C8G U28G U32G | 0.03
29 | C8G U32G A41C | 0.13
30 | C8G U34G A39G U43G | 0.02
31 | C8G U38G G40U | 0.03
32 | C8U A11C A24G U34A G40C | 0.01
33 | C8U A11C C13U A41G | 0.01
34 | C8U A11C C23G A24U A26C C31U C42G | 0
35 | C8U A11C G17A | 0.02
36 | C8U A11G C23A U34G | 0.01
37 | C8U A11G G17A | 0
38 | C8U A11G G17C G27U U34A | 0.01
39 | C8U A11G G22C G35A | 0.04
40 | C8U A12C A14U | 0.03
41 | C8U A12C C37G | 0.01
42 | C8U A12C C42A C45A | 0.01
43 | C8U A12C U38C | 0.17
44 | C8U A12C U43A C46G | 0
45 | C8U A12G A16U C46A | 0.18
46 | C8U A12G C13G | 0.02
47 | C8U A12G C13G C18U A26U | 0.14
48 | C8U A12G G21U U32A | 0.02

Row | Variant | self-cleavage
49 | C8U A12G G30U G36A | 0.03
50 | C8U A12G U32A | 0.17
51 | C8U A12U A26G G30C A39C C46G | 0.06
52 | C8U A12U U43G | 0.04
53 | C8U A14C G17C A26C C31U A41U U43G C46U | 0.03
54 | C8U A14C G22U G35A | 0.12
55 | C8U A14C G27C | 0.17
56 | C8U A14G C37U | 0.44
57 | C8U A14G U28C | 0.04
58 | C8U A14U C15U A16C A24C G30U | 0.24
59 | C8U A14U C18G | 0.38
60 | C8U A14U U20A | 0.25
61 | C8U A16C A24U | 0.03
62 | C8U A16C G27A C37U | 0.21
63 | C8U A16G C18U G21A A24G G30C C46G | 0.01
64 | C8U A16G G17U G29U | 0.31
65 | C8U A16G G22C U34G | 0.06
66 | C8U A16G G30C G40C C46U | 0.16
67 | C8U A16G G36U C45G | 0.04
68 | C8U A16G U20C U38G G40C | 0
69 | C8U A16G U28A | 0.02
70 | C8U A16U U28A U38C | 0.15
71 | C8U A24G A26C | 0.38
72 | C8U A24G G27A A39U | 0.16

Row | Variant | self-cleavage
73 | C8U A24G U28C | 0.14
74 | C8U A25C C37U | 0.12
75 | C8U A25C C46A | 0.18
76 | C8U A25C U28A A39G U43A C45G | 0
77 | C8U A25U G29C U32C A39G A41G | 0.02
78 | C8U A26G G33C | 0.03
79 | C8U A26U G29A C37G A41U | 0.03
80 | C8U C10A A11U G19U G40U | 0
81 | C8U C10A A14G | 0.02
82 | C8U C10A A16C | 0.05
83 | C8U C10A A24G C31A | 0.01
84 | C8U C10A C13A | 0.03
85 | C8U C10A G27C G29U | 0.03
86 | C8U C10A U28C | 0.02
87 | C8U C10G A11U G27C U38A G44C C45A | 0
88 | C8U C10G C13A A25G | 0.02
89 | C8U C10G C15G | 0.02
90 | C8U C10G C23A | 0.01
91 | C8U C10G C23G U34G G35A | 0.02
92 | C8U C10G G17U U38G | 0.03
93 | C8U C10G G19C U32G | 0
94 | C8U C10G G30A | 0.03
95 | C8U C10U A11G A16U U34A G35A | 0.03
96 | C8U C10U A12C A26G | 0.03

Row | Variant | self-cleavage
97 | C8U C10U A25U C45U | 0.05
98 | C8U C10U G19A U43G | 0.06
99 | C8U C10U G22C G30U U43C | 0.04
100 | C8U C10U G29A | 0.04
101 | C8U C10U U28G U34G | 0.07
102 | C8U C10U U32C G36U | 0.12
103 | C8U C13A A26G A41C G44C | 0.07
104 | C8U C13A G17C U32G G33U U34A | 0.14
105 | C8U C13A G21U | 0.34
106 | C8U C13A G29U U38A C46U | 0.14
107 | C8U C13A G35U G44C | 0.16
108 | C8U C13G C15G A39C | 0.07
109 | C8U C13G C18G C31G G44C C46U | 0.04
110 | C8U C13G G19A A41C | 0.01
111 | C8U C13G G21A | 0.44
112 | C8U C13G G22A G35U | 0.28
113 | C8U C13G G27A C31A | 0.07
114 | C8U C13G U32C | 0.06
115 | C8U C13G U38G | 0.01
116 | C8U C13U A16U G33C C46A | 0.05
117 | C8U C13U A39C G40C | 0.2
118 | C8U C13U C37A | 0.2
119 | C8U C13U G17A G19A G21U C46A | 0.1
120 | C8U C13U U43G C45A | 1.05

Row | Variant | self-cleavage
121 | C8U C15A A16U C37A G40U G44U | 0.03
122 | C8U C15A A25C | 0.25
123 | C8U C15A G17A C31U | 1.27
124 | C8U C15A G33A G36U U38C C46U | 0.13
125 | C8U C15A U38G | 0.14
126 | C8U C15G A16U G21C U28A G35A G44U | 0.02
127 | C8U C15G G27C G44U | 0.04
128 | C8U C15U C18G G19C G30U | 0.25
129 | C8U C18A A25C C31G | 0.05
130 | C8U C18A G29U | 0.27
131 | C8U C18A G44A | 0.09
132 | C8U C18G C42A | 0.17
133 | C8U C18G G22C U43A | 0.03
134 | C8U C18G G35C | 0.1
135 | C8U C18G G36A U38C | 0.06
136 | C8U C18G U20C A24U G30U U38A A39G | 0.15
137 | C8U C18G U20G A39G | 0.04
138 | C8U C18U A26G | 0.15
139 | C8U C23A C31U | 0.18
140 | C8U C23A C37A | 0.1
141 | C8U C23A U34C | 0.46
142 | C8U C23U G27A U34A | 0.1
143 | C8U C37A C45A | 0.2
144 | C8U C37U A39G | 0.01

Row | Variant | self-cleavage
145 | C8U C42U C45A | 0.15
146 | C8U G17A G19A G33C | 0.07
147 | C8U G17A G40U | 0.13
148 | C8U G17C A39U A41U | 0.04
149 | C8U G17C C31G A41U | 0.08
150 | C8U G17C G22U A26C U38A | 0.08
151 | C8U G17U C18U G40A | 0.24
152 | C8U G17U C23G A24G | 0.04
153 | C8U G19A C31A G40U | 0.12
154 | C8U G19A G22U G27U G35C G40A | 0.11
155 | C8U G19A G27A G40A A41C | 0.06
156 | C8U G19A U20C A25U G33U U38A | 0.02
157 | C8U G19C G27C G36U | 0.07
158 | C8U G19C U20A G21U A39C | 0.02
159 | C8U G19U C45U | 0.23
160 | C8U G19U G21U | 0.21
161 | C8U G19U G27A G30U | 0.33
162 | C8U G19U G33A | 0.04
163 | C8U G19U U20A G35A | 0.07
164 | C8U G21A C23A G29A C46G | 0.22
165 | C8U G21A C45U | 0.71
166 | C8U G21C C42A | 0.18
167 | C8U G21C U34G | 0.13
